# In paper PMC4336329 (PLoS ONE, 2015):
# About 2,200 (0.71%) of roughly 310,000 compounds showed an effect of 50% or more. The effect is printed as a negative number. The list shows a part of the results.
# Target: human ether-à-go-go-related gene (hERG) potassium channel (human, UniProt Q12809)
# Experiment: primary screen, population patch clamp on CHO cells stably expressing hERG
# Sequence of human ether-à-go-go-related gene (hERG) potassium channel (Q12809 whole entry, looked up): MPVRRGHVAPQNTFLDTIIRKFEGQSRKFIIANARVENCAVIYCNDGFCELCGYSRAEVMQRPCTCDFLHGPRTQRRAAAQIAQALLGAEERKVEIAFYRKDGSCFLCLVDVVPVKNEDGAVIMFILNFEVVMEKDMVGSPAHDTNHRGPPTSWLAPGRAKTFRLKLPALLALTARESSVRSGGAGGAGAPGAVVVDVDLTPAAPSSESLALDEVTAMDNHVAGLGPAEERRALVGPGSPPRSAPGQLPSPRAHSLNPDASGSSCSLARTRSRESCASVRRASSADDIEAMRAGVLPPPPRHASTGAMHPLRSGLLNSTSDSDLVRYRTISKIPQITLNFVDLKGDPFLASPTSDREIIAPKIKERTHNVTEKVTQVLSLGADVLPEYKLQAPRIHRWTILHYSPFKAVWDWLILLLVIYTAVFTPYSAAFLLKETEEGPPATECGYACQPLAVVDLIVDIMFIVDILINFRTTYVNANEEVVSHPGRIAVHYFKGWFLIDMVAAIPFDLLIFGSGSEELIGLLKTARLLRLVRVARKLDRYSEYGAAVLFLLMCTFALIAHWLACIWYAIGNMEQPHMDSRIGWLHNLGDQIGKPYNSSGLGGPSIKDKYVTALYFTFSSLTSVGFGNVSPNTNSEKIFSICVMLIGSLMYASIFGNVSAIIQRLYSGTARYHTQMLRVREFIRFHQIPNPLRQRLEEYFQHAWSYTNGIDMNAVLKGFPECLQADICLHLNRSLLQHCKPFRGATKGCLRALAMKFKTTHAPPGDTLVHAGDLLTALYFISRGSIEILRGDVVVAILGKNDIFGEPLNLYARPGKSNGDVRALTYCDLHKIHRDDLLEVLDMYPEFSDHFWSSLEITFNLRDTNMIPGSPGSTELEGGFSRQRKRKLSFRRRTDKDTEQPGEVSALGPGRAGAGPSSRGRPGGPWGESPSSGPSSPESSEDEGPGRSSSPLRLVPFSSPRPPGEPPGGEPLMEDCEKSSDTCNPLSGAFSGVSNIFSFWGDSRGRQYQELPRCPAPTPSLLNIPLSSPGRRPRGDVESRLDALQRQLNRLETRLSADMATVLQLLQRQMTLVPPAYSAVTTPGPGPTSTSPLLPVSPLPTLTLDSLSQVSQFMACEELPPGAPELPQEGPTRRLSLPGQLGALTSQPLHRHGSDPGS
row,Compound,"hERG current change (%, negative = inhibition) at 1uM"
1,O=C(CF)NC(NC(=S)Nc1cccc([N+](=O)[O-])c1)C(Cl)(Cl)Cl (centres unmarked),14.5%
2,CSc1nc(NCc2ccco2)c2sc3nc(C(C)C)c4c(c3c2n1)CC(C)(C)OC4,6.33%
3,COc1ccc2oc(C(=O)OCC(=O)N(Cc3ccccc3)C(C)(C)C)c(C)c2c1,14.7%
4,COc1ccc(C)cc1NC(=O)C1CCCN1S(=O)(=O)c1ccccc1F (centres unmarked),9.29%
5,Cc1cc(C(=O)OCn2nnc3ccccc3c2=O)c(C)n1-c1ccccc1,14.7%
6,CCC(C)n1c(O)c(/C=N/Nc2ccccc2)c(=O)[nH]c1=S (centres unmarked),10.3%
7,COc1ccc(OCCCC(=O)NCCc2ccccc2)cc1,5.28%
8,Cc1c(NS(=O)(=O)c2ccc(NCC3CCCO3)c([N+](=O)[O-])c2)c(=O)n(-c2ccccc2)n1C (centres unmarked),-5.18%
9,COc1cccc(-c2nnc(SCC(=O)Nc3cc(C)on3)o2)c1,8.6%
10,CCOc1ccc(OCC)c(NC(=O)CCn2c(=O)oc3ccccc32)c1,4.38%
11,Cn1c(CN2CCN(CCO)CC2)c(C#N)c2ccccc21,11.3%
12,NC(=O)CC(c1ccccc1)c1ccco1 (centres unmarked),16%
13,Cc1ccnc2nc(C(=O)Nc3nnc(-c4ccccc4)o3)nn12,9.69%
14,COc1ccc(CN2CCNC(=O)C2CC(=O)NCCSc2nccn2C)c(OC)c1 (centres unmarked),10.2%
15,COc1cccc(C(=O)NN2CC(O)=C(c3nc4ccccc4n3C)C2=N)c1,8.09%
16,Cc1ccc(N2CC(C(=O)N3CCC(C(=O)Nc4nnc(C(C)(C)C)s4)CC3)CC2=O)cc1 (centres unmarked),11.9%
17,NC(=O)c1ccccc1NS(=O)(=O)c1ccc(F)cc1,8.37%
18,CCOc1ccc(-n2c(-c3ccc(OC)cc3)c[n+]3c2CCCCC3)cc1.[Br-],-39.1%
19,CC(CCc1ccccc1)NC(=O)CN1C(=O)NC2(CCCCC2)C1=O (centres unmarked),16.3%
20,O=C(/C=C/c1ccc([N+](=O)[O-])cc1)OCc1cnc(-c2ccccc2)o1,7.83%
21,CC(=O)NN1C(=O)/C(=C\c2ccccc2)SC1=S,7.91%
22,Cc1cc(C)nc(NCC(O)COc2ccccc2C)n1 (centres unmarked),6.53%

row,Compound,"hERG current change (%, negative = inhibition) at 1uM"
1,Fc1cccc(CSc2nc3ncc(Cl)cc3[nH]2)c1,12%
2,CCc1nnc(NS(=O)(=O)c2ccc(NC(=S)Nc3ccc(F)cc3)cc2)s1,13.5%
3,CCC1(C)Cc2ccccc2-c2[nH][nH]c(=O)c21 (centres unmarked),14%
4,CC1NC(=O)NC1CCCCC(=O)O (centres unmarked),-5.07%
5,CCC(Cc1ccccc1)NS(=O)(=O)c1ccc2c(c1)NC(=O)CO2 (centres unmarked),7.15%
6,CNc1nc(N)c([N+](=O)[O-])c(NCc2ccccc2)n1,9.04%
7,CCn1c(=O)n(CC)c2cc(N3CCCC3)c(NC(=O)c3cccc(Cl)c3)cc21,13.6%
8,COc1ccc(CCn2c(O)c(C=Nc3ccccc3F)c(=O)[nH]c2=O)cc1OC,18.5%
9,COc1ccc(Oc2cc(C)nc(Cl)n2)nn1,9.5%
10,BrC(/C=N/N1CCN(Cc2ccccc2)CC1)=C/c1ccccc1,-0.0237%
11,CC(C)C(=O)OC1CCS(=O)(=O)c2sccc21 (centres unmarked),11.1%
12,O=C(O)C(=O)O.OC(CNCC1COc2ccccc2O1)COCc1cccs1 (centres unmarked),-25.3%
13,CN(C)c1nc(SCC(=O)Nc2ccc(Cl)c(Cl)c2)nc(N2CCOCC2)n1,2.56%
14,CCC1(CC)C(=O)C2=C3C1[C@H](C(=O)OC)C=C(C(=O)OC)C[C@H]3[C@H]1C(=O)N(CC(=O)OC)C(=O)[C@H]1[C@H]2C (some centres unmarked),10.8%
15,O=C(c1ccc2c3c(cccc13)CC2)C1CCCN(C(=O)c2ccc[n+]([O-])c2)C1 (centres unmarked),2.52%
16,CC(NC(C)c1ccccc1Cl)C(=O)Nc1cccc(S(=O)(=O)N2CCCCC2)c1 (centres unmarked),9.92%
17,CC(=O)NCc1ccc(S(=O)(=O)N/N=C/c2ccccc2)cc1,7.62%
18,COc1cc(C2CC(=O)N3CN(c4ccccc4C)CSC3=C2C#N)cc(OC)c1OC (centres unmarked),4.19%
19,O=C(COC(=O)c1cccc(-n2cnnn2)c1)c1ccc(F)cc1,7.04%
20,Cc1ccccc1OCC(=O)N/N=C/c1ccco1,15.3%
21,COc1ccc(C)cc1S(=O)(=O)NCC(c1cccnc1)N1CCc2ccccc2C1 (centres unmarked),8.76%
22,CC1(C)Cc2nc3sc4c(N(CCO)CCO)nnnc4c3cc2CO1,4.01%

row,Compound,"hERG current change (%, negative = inhibition) at 1uM"
1,O=C(NC(=S)Nc1ccc(NC(=O)c2ccccc2)cc1)c1ccc(F)cc1,7.94%
2,COCCn1c(O)c(/C=N/NC(=O)CSC(=S)N2CCCC2)c(=O)[nH]c1=S,11.5%
3,CCSc1nnc(NC(=O)c2cnccn2)s1,18.2%
4,Cc1ccc[n+](CC2OCc3ccccc3CO2)c1.[Br-],13.5%
5,COc1ccc(N2CCN(C(=O)c3ccc(Br)cc3)CC2)c([N+](=O)[O-])c1,-30.1%
6,O=C1c2ccccc2C(O)(Cc2ccccc2)N1c1ccc2c(c1)OCO2 (centres unmarked),13.8%
7,CC(C)(C)c1cc(CN2CCN(CCO)CC2)cc(C(C)(C)C)c1O,-1.88%
8,CCOc1ccc2oc(C(=O)N(CCOC)c3c(N)n(CC(C)C)c(=O)[nH]c3=O)c(C)c2c1,4.06%
9,Cc1ccc(S(=O)(=O)Nc2ccccc2N(C)S(=O)(=O)c2ccc(C)cc2)cc1,14%
10,COc1ccc(CC(=O)OCc2cc3cccc(C)c3[nH]c2=O)cc1,2.65%
11,CC(C)c1ccc(OCC(=O)Nc2cccc(C(=O)Nc3ccccc3C(=O)O)c2)cc1,10.1%
12,COc1ccc(C(C(=O)NC2CCCCC2)N(C(=O)Cc2c[nH]c3ccccc23)c2ccccc2)cc1OC (centres unmarked),10.2%
13,CC(=O)Nc1ccc(S(=O)(=O)Nc2cccc3cccnc23)cc1,9.51%
14,O=C(CSc1ccc(Cl)cc1)Nc1ccc(-c2nc3ccccc3[nH]2)cc1,10.3%
15,Cc1nc2c(=O)n(C)c(=O)n(C)c2nc1Cl,9.86%
16,COc1ccc(OC)c(N2C(=O)NC(=O)C3(Cc4cc(C)ccc4N(C)C3)C2=O)c1 (centres unmarked),-0.505%
17,C=CCNc1nc(C(=O)OCC(=O)c2ccc(OC)cc2OC)cs1,-5.45%
18,O=c1[nH]cnc2scc(-c3ccccc3)c12,8.36%
19,CCc1ccc(C(=O)NNc2ccc(C)c(Cl)c2)cc1,5.64%
20,Cc1ccc(C(=O)NCCCNC(=O)Cc2ccc(Cl)cc2)cn1,-8.64%
21,CC/C(=N\NC(=O)CNC(=O)/C=C/c1ccco1)c1ccccc1,4.45%
22,COc1ccc(-n2c(SCC(=O)Nc3cc(C)on3)nc3ccc(O)cc3c2=O)cc1OC,22.3%

row,Compound,"hERG current change (%, negative = inhibition) at 1uM"
1,Cc1ccc(C)c(OCc2cc(C(=O)N(C)Cc3ccccn3)no2)c1,-1.12%
2,CCC(c1nnnn1C1CCCCC1)N1CCN(C2CCCC2)CC1.Cl (centres unmarked),11.6%
3,Cc1ccccc1CNC(=O)C(=O)NCC1OCCCN1S(=O)(=O)c1cccs1 (centres unmarked),13.9%
4,COc1ccc(/C=C/c2nc(C)c(-c3ccccc3)c(=O)[nH]2)cc1OC,11.9%
5,Cc1cnc([N+](=O)[O-])n1CCOC(=O)NC(=O)c1c(F)cccc1F,5.12%
6,CC(C)NS(=O)(=O)c1ccc(CCC(=O)N2CCOCC2)cc1,-0.27%
7,CN1CCN(Cc2c(C#N)c3ccccc3n2C)CC1,-19.6%
8,CC(C)n1cc(C(=O)N2CCCC(N3CCN(c4ccc(F)cc4)CC3)C2)cn1 (centres unmarked),11.5%
9,Cc1ccc2c(c1)c1c3n2CCN(CC(O)CNC(C)C)C3CCC1.Cl.O (centres unmarked),-1.61%
10,CCOC(=O)C(O)C1CCc2c([nH]c3ccc(C)cc23)C1=O (centres unmarked),10.9%
11,CCOCCn1c(N2CCN(c3ccc(OC)cc3)CC2)nc2c1c(=O)n(C)c(=O)n2C,-6.95%
12,CC(CN1CCCCC1)OC(=O)COc1ccc(Cl)cc1.Cl (centres unmarked),12.5%
13,COC(CNC(=O)c1ccc2c(c1)ncn2-c1cc(C)cc(C)c1)OC,1%
14,Cc1cccc(C)c1NC(=O)CN(C)CC(=O)c1c(N)n(Cc2ccccc2)c(=O)n(C)c1=O,5%
15,O=C(Nc1nccs1)c1ccc(S(=O)(=O)N2CCCCC2)cc1,12.7%
16,Cc1cc(C)cc(NC(=S)Nc2ccc(Cl)c(Cl)c2)c1,8.43%
17,CNC(=O)CC(CC(=O)c1ccccc1)c1ccccc1 (centres unmarked),14.9%
18,C#CCOCCOCCOCCNc1nc(N2CCN(C(=O)[C@H](CCC(=O)O)n3cc(C(N)CO)nn3)CC2)nc(N2CCN(C(=O)[C@H](Cc3ccc(O)cc3)n3cc(C(N)[C@H](C)CC)nn3)CC2)n1.Cl (some centres unmarked),5.62%
19,CCCC[n+]1ccn(-c2nc3c([N+](=O)[O-])cccc3n2C)c1.[I-],12.2%
20,O=C(NCc1cccs1)c1nc2c(nnn2Cc2ccc(F)cc2)c(=O)[nH]1,-7.69%
